Measurements as given in the supplement of paper PMC10600219.
Values joined by “and” are separate entries in the source; they are usually repeats but may differ in a detail not shown here. Equal entries are not always repeated. Structures can show the parent of a compound that is named as a salt. Whole data set: some 2,800 compounds, median “cell viability relative to vehicle” near 1.1, cut for the lowest 2% near 0.19. Some of the results follow.

test system: NCI-H2228 parental; experiment: cell viability relative to vehicle (fraction of vehicle); NCI-H2228 is an ALK-positive lung cancer line and DTP means drug-tolerant persister; higher = less growth inhibition; conditions: 100 nM; treatment time 6 days
Summary of the method: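 The 3114-agent TargetMol anti-cancer compound library was tested at 100 nM for 6 days on parental NCI-H2228 cells and on persister cells derived with 1000 nM of a targeted drug for 13 days. ATP readout by the CellTiter-Glo 3D Cell Viability Assay gave cell viability relative to DMSO vehicle-treated cells.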

Point of comparison: `CCCCCCCCCCCCCCCCCCOCC(O)CO` (stereo not drawn) [Batyl alcohol], cell viability 0.988. Against it:
- NC(=O)N1CCC(CC(=O)N2CCC([C@H]3c4ncc(Br)cc4CCc4cc(Cl)cc(Br)c43)CC2)CC1 [Lonafarnib] — lower, 0.726
- C[C@H](N[C@@H](CCc1ccccc1)C(=O)O)C(=O)N1CCC[C@H]1C(=O)O [Enalaprilat Dihydrate] — higher, 1.09
- O=C(Nc1cc(C(F)(F)F)cc(C(F)(F)F)c1)c1cc(Cl)ccc1O — higher, 1.03
- O=C1/C(=C/c2cccs2)CC/C1=C\c1cccs1 — higher, 1.11
- NC(=O)N[C@@H](CCC(=O)O)C(=O)O [Carbaglu] — higher, 1.08
- COCCCC/C(=N\OCCN)c1ccc(C(F)(F)F)cc1 [Fluvoxamine maleate] — higher, 1.12
- C(=N\NC1=NCCN1)/c1c2ccccc2c(/C=N/NC2=NCCN2)c2ccccc12 [Bisantrene] — higher, 1.01
- O=C(NC[C@H]1CN(c2ccc(N3CCOCC3=O)cc2)C(=O)O1)c1ccc(Cl)s1 [Rivaroxaban] — lower, 0.974
- COc1cc(N2CCC(N3CCN(C)CC3)CC2)ccc1Nc1ncc(Cl)c(-c2c[nH]c3ccccc23)n1 — lower, 0.358
- O=C(O)Cc1ccc(-c2ccccc2)cc1 [4-Biphenylacetic acid] — higher, 1.1
- COC(=O)c1ccc2c(c1)nc(NC(=O)c1ccccc1)n2CCCc1ccccc1 — higher, 1.03
- CN1CCN(Cc2ccc(Nc3ncc(Cl)c(Nc4ccccc4S(=O)(=O)N(C)C)n3)cc2)CC1 — lower, 0.0869
- c1ccc(NCc2ccc(CNc3ccccn3)cc2)nc1 — lower, 0.814
- N=C(NCCCCCCNC(=N)NC(=N)Nc1ccc(Cl)cc1)NC(=N)Nc1ccc(Cl)cc1 [Chlorhexidine] — higher, 1.08
- N=C(NCCCCCCNC(=N)NC(=N)Nc1ccc(Cl)cc1)NC(=N)Nc1ccc(Cl)cc1 [Chlorhexidine hydrochloride] — lower, 0.965
- Cn1c(=O)c2c(ncn2CC(=O)Nc2ccc(-c3ccccc3)nn2)n(C)c1=O — higher, 0.995
- COc1ccc2c(OCc3nnc4ccc(-c5ccccc5)nn34)ccnc2c1 — higher, 1.13
- COc1c2occc2cc2ccc(=O)oc12 [8-Methoxypsoralen] — higher, 1.24
- CC(C)CC(N)=O [Isovaleramide] — higher, 1.15
- CC1(C)CC[C@]2(C(=O)O[C@@H]3O[C@H](CO)[C@@H](O)[C@H](O)[C@H]3O)CC[C@]3(C)C(=CC[C@@H]4[C@@]5(C)CC[C@H](O[C@@H]6O[C@H](C(=O)O)[C@@H](O)[C@H](O)[C@H]6O)C(C)(C)[C@@H]5CC[C@]43C)[C@@H]2C1 [Chikusetsusaponin IVa] — higher, 1.04
- CN1CCN(C2=Nc3ccccc3Oc3ccc(Cl)cc32)CC1 [Loxapine succinate salt] — higher, 1.13
- CCOC(=O)[C@@H](N)Cc1ccc(-c2cc(O[C@H](c3ccc(Cl)cc3-n3ccc(C)n3)C(F)(F)F)nc(N)n2)cc1 [Telotristat Etiprate] — higher, 1.15
- C[N+]1(C)CCC(OC(=O)C(O)(c2ccccc2)C2CCCC2)C1 (stereo not drawn) [Glycopyrrolate] — lower, 0.836
- C[C@@]1(C(=O)Nc2ccc(F)nc2)CCCN1c1nc(Nc2cc(C3CC3)n[nH]2)c2cccn2n1 — lower, 0.596
- Clc1ccc(CCC(Cn2ccnc2)Sc2c(Cl)cccc2Cl)cc1 (stereo not drawn) [Butoconazole nitrate] — higher, 1.35
- N#Cc1ccc(C(c2ccc(C#N)cc2)n2cncn2)cc1 [Letrozole] — higher, 1.09
- COc1ccc([C@@H]2CC(=O)c3c(O)cc(O)cc3O2)cc1O [Hesperetin] — higher, 1.11
- COc1cc(N2CCOCC2)ccc1Nc1ncc(Cl)c(Nc2ccccc2NS(C)(=O)=O)n1 — lower, 0.573
- C=C1[C@H](OC(=O)/C=C(\C)CC)C[C@@H](C(C)C)[C@@H]2[C@@H]([C@@H](C)OC(C)=O)C(=O)C[C@@H]12 [Tussilagone] — higher, 1.1
- Nc1c(CC(=O)O)cccc1C(=O)c1ccccc1 [Amfenac Sodium Monohydrate] — higher, 1.19
- N=C1NC(=O)/C(=C/c2ccc(O)cc2)S1 [Mirin] — higher, 1.05
- NC(=O)c1ccc(N(C(N)=O)c2c(F)cccc2F)nc1-c1ccc(F)cc1F — higher, 1.14
- Oc1cc(O)c2c(c1)O[C@H](c1ccc(O)c(O)c1)[C@@H](O)C2 [Cianidanol] — higher, 1.06
- O=c1cc(-c2ccccc2)oc2c(O)c(O)ccc12 [7,8-Dihydroxyflavone] — higher, 1.1
- CCN(CC)CCOC(=O)C1(C2CCCCC2)CCCCC1 [Dicyclomine hydrochloride] — higher, 1.47
- CCCc1cc(C)[nH]c(=O)c1CNC(=O)c1cc(-c2ccc(N3CCN(C(C)C)CC3)nc2)cc2c1cnn2C(C)C — higher, 1.12
- CN[C@@H](C)C(=O)N[C@H](C(=O)N1CCC[C@H]1c1nc(C(=O)c2ccc(F)cc2)cs1)C1CCCCC1 — higher, 1.18
- COc1nccc(-c2c(-c3ccc(F)cc3)ncn2C2CCC(O)CC2)n1 (stereo not drawn) — lower, 0.885
- COc1c(C)c(C(=O)c2ccc(N)c(C(=O)O)c2)n2ccccc12 — higher, 1.02
- O=C1C[C@@H](c2ccccc2)Oc2cc(O)cc(O)c21 [Pinocembrin] — higher, 1.03
- COc1ccc(-c2ccc3c(N4CCOC[C@@H]4C)nc(N4CCOC[C@@H]4C)nc3n2)cc1CO — lower, 0.219
- COc1cc2ncnc(Sc3nnc(C)s3)c2cc1OC — lower, 0.892
- O=C(NC[C@H](O)CN1CCc2ccccc2C1)c1cc(NC2COC2)ncn1 — lower, 0.931
- O=C1NC(=O)C(c2cnc3ccccn23)=C1c1cn2c3c(cc(F)cc13)CN(C(=O)N1CCCCC1)CC2 — lower, 0.297
- CN(C)C/C=C/C(=O)Nc1ccc(C(=O)Nc2cccc(Nc3ncc(Cl)c(-c4c[nH]c5ccccc45)n3)c2)cc1 — lower, 0.552
- Cc1cn[nH]c1 [4-Methylpyrazole] — higher, 1.11
- CC1(C)CC[C@]2(C(=O)O)CC[C@]3(C)C(=CC[C@@H]4[C@@]5(C)C[C@@H](O)[C@H](O)C(C)(C)[C@@H]5CC[C@]43C)[C@@H]2C1 [Maslinic acid] — lower, 0.955
- Cc1ccc(-c2csc3ncnc(SCCC(=O)O)c23)cc1 — higher, 1.09
- NCCc1c[nH]cn1 [Histamine] — higher, 1.09
- NCCc1c[nH]cn1 [Histamine 2HCl] — lower, 0.967
- OC(Cn1cncn1)(Cn1cncn1)c1ccc(F)cc1F [Fluconazole] — higher, 1.28

In the case of `O=C(O)c1ccc(S(=O)(=O)NC2CCCCC2)cc1`, the cell viability was 0.986 and 1.12.
